± gives the standard deviation. Only a part is listed here, and it is no random draw.
Test system: MIWI (PIWIL1) piRISC loaded with L1MC piRNA (30 nt)
Assay: pre-steady-state target cleavage rate (min^-1); MIWI and MILI are mouse PIWI proteins and EfPiwi is from a freshwater sponge; tags in brackets are library labels; higher = faster piRNA-guided slicing of the target
Details: guide: L1MC piRNA 5'p-UAACUAAAUACUAUGCAAGCUGUAGGUCCU; auxiliary factor: none (no GTSF1)
Method in brief: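 In this Cleave-'n-Seq assay, uncleaved targets were sequenced and normalised to depth and to weakly complementary targets. They came from a transcribed, DNA-blocked target RNA library […] mixed with 1 nM active affinity-purified piRISC carrying one synthetic guide, with or without 500 nM GTSF1 partner protein, in HEPES–potassium acetate buffer at 33 °C for 0–8 or 0–960 min. After three trials were pooled and k3 was capped at 0.0001 min^-1, the pre-steady-state cleavage rate was obtained from a burst-and-steady-state fit.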
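Further: 1 nM active piRISC with 0.1 nM target library at 33 °C single turnover.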

Sequence | pre-steady-state target cleavage rate
UCCUGGAUGUCGAACGAUGUAUUUAGUUA | < 0.0001
UCCUGGAUGUCGAUCCAAAGUAUUUAGUUA | < 0.0001
UCCUGGAUGUCGAACGAUAGUAUUUUGUUA | < 0.0001
UCCUGGAUGUCGAAGCAUAGAAUUUAGUAA | < 0.0001
UGGACCUACAGCUUGCAUAGUAUAUUAGUUA | 0.0409 ± 0.0089
